Experimental data published in PubChem BioAssay AID463173 (ICCB-Longwood Screening Facility, Harvard Medical School, 2010).
Several values for one entry are separate records, joined by “and”; a condition that tells them apart may be missing. Equal values may be shown once. Among all 52,000 compounds or so, about 1,700 (3.3%) were called active. No stated cut-off is given here; in the data, active means survival mostly below about 52% (no sharp cut-off); inactive means mostly above about 56%. The list shows a part of the results.

test system: Wild type; assay: S. aureus survival, RN4220 and DeltatarO strains – OD600, teichoic acid synthesis inhibitors, primary screen (AID 463173); settings: S. aureus RN4220 wild type/DeltatarO growth, OD600, 18 h, active compounds read low, screened at 18.75 µg/mL (by protocol)

How did the survival turn out when `CCc1ccc(NC(=O)Cn2c(=O)n(CCCC(=O)NCc3ccccc3Cl)c(=O)c3ccccc32)cc1` was run?
Its survival is inactive: 136%.

For `Cc1cc(NC(=O)CSc2nc(-c3cccc(F)c3)nc3c2c(=O)n(C)c(=O)n3C)no1`, which survival is on record?
The survival was inactive: 68%.

With `COc1ccc2c(Sc3ccc(C)cc3)c(C(=O)NCC(C)c3ccccc3)[nH]c2c1` (stereo unspecified) as the compound, how does the survival read?
The survival was inactive: 95%.

For `COc1cc(NS(=O)(=O)c2ccc3c(c2)CC(C)N3C(=O)C2CCC2)cc(OC)c1OC` (stereo unspecified), which survival is on record?
Its survival is inactive: 94%.

With `Cc1ccc(-c2nc3cc(NC(=O)Cc4ccc(Cl)cc4)ccc3o2)cc1` as the compound, how does the survival read?
Its survival is inactive: 80%.

With `CCCNC(=O)Cn1nc(-c2ccc(C)c(C)c2)c2cnc3ccc(OC)cc3c21` as the compound, how does the survival read?
Its survival is inactive: 88%.

With `COc1ccc(N(CC(=O)N2CCN(c3ccccc3F)CC2)S(=O)(=O)c2c(C)noc2C)cc1` as the compound, how does the survival read?
Its survival is inactive: 119%.

For `COc1ccccc1-c1nc2c(c(SCc3cc(C)ccc3C)n1)Cc1c(CO)cnc(C)c1O2`, which survival is on record?
Its survival is inactive: 76%.

With `Cc1ccc(CNC(=O)c2cc3c(=O)oc4ccc(C)cc4c3s2)cc1` as the compound, how does the survival read?
The survival was inactive: 88%.

`COc1ccc2oc(=O)c(C(=O)NCCc3c(C)[nH]c4ccc(C)cc34)cc2c1` was tested. Which survival did it give?
Its survival is inactive: 61%.

How did the survival turn out when `COc1ccccc1NC(=O)Cn1cnc2ccc(S(=O)(=O)N3CCC(C)CC3)cc2c1=O` was run?
Its survival is inactive: 81%.

How did the survival turn out when `COc1ccc(CNC(=O)c2cc3sccc3n2Cc2ccc(F)cc2)cc1` was run?
Its survival is inactive: 95%.

Which survival does the source give for `COCCCN1C(=O)c2[nH]nc(-c3cc(C)ccc3O)c2C1c1ccc(F)cc1` (stereo unspecified) here?
Its survival is inactive: 92%.

Which survival does the source give for `COc1ccc(NC(=O)Cn2c(=O)n(Cc3ccco3)c(=O)c3sc4ccccc4c32)c(OC)c1` here?
Its survival is inactive: 82%.

Which survival does the source give for `Cc1ccc(NC(=O)C2CCCN(C(=O)c3cnn(-c4ccccc4)c3-n3cccc3)C2)cc1` (stereo unspecified) here?
The survival was inactive: 80%.

`CC(C)c1ccc(-c2noc(C3CCCN(C(=O)c4ccccc4)C3)n2)cc1` (stereo unspecified) was tested. Which survival did it give?
Its survival is inactive: 117%.

How did the survival turn out when `CCOC(=O)c1ccc(OC(=O)c2cn(-c3ccc(C)cc3)c(=O)c3ccccc23)cc1` was run?
Its survival is inactive: 80%.

With `Cc1cc(OCC(=O)N(Cc2ccc(N(C)C)cc2)Cc2ccco2)cc(C)c1Cl` as the compound, how does the survival read?
The survival was inactive: 89%.

With `Cc1nn(-c2ccccc2)c(-n2cccc2)c1C(=O)N1CCN(c2ccccc2)CC1` as the compound, how does the survival read?
The survival was inactive: 86%.

`Cc1cccc(OCC(=O)Nc2ccc(S(=O)(=O)Nc3onc(C)c3C)cc2)c1C` was tested. Which survival did it give?
Its survival is inactive: 71%.

Which survival does the source give for `Cc1ccccc1NC(=O)C(Cc1ccccc1)N1Cc2ccccc2C1=O` (stereo unspecified) here?
Its survival is inactive: 76%.

Which survival does the source give for `O=C(Nc1noc2ccccc12)c1cccc(Cl)c1Cl` here?
Its survival is inactive: 89%.

Which survival does the source give for `COc1ccc(CNCCC(c2ccc(C)cc2)c2ccco2)cc1` (stereo unspecified) here?
The survival was inactive: 72%.

`Cc1ccc2oc(=O)c3cc(C(=O)Nc4ccc(C)c(F)c4)sc3c2c1` was tested. Which survival did it give?
Its survival is inactive: 85%.

`COc1ccc(Cn2nnnc2C(c2cccs2)N2CCOCC2)cc1` (stereo unspecified) was tested. Which survival did it give?
The survival was inactive: 108%.

Which survival does the source give for `CCc1nnc(NC(=O)CSc2nc3c([nH]c4ccccc43)c(=O)n2-c2ccc(F)cc2)s1` here?
The survival was inactive: 91%.

With `CC(O)C(=O)NS(=O)(=O)c1ccccc1` (stereo unspecified) as the compound, how does the survival read?
Its survival is inactive: 97%.

With `Cc1c(Cl)cccc1NC(=O)c1cc(S(=O)(=O)N2CCCCC2)cn1C` as the compound, how does the survival read?
Its survival is inactive: 80%.

With `Cc1cccn2c(=O)cc(COc3ccc(NC(=O)C(C)C)cc3)nc12` as the compound, how does the survival read?
The survival was inactive: 76%.

How did the survival turn out when `Cc1ccc(-n2nc(C)c3c(C)cc(=O)n(CC(=O)Nc4cc(Cl)ccc4C)c32)cc1` was run?
The survival was inactive: 140%.

`Nc1ccc2oc(-c3ccccc3Br)nc2c1` was tested. Which survival did it give?
The survival was inactive: 119% and inactive: 52%.

For `O=C(O)CSc1nnnn1C1CCCCC1`, which survival is on record?
The survival was inactive: 98%.

With `Cc1ccccc1NC(=O)CSc1nc2ccc(NC(=O)CCc3ccccc3)cc2s1` as the compound, how does the survival read?
Its survival is inactive: 81%.

Which survival does the source give for `COC(=O)c1sccc1S(=O)(=O)N(CC(=O)Nc1ccccc1C)c1ccc(Cl)cc1` here?
The survival was inactive: 134%.

For `Cc1nc(-c2ccc(S(=O)(=O)NCc3ccc(F)cc3)cc2)co1`, which survival is on record?
The survival was inactive: 68%.

For `COc1ccc(C(=O)NCc2nc(-c3cccc(C)c3)no2)cc1OC`, which survival is on record?
Its survival is inactive: 113%.

Which survival does the source give for `Cc1cc(NS(=O)(=O)c2cn(C)c(C)n2)ccc1Br` here?
Its survival is inactive: 83%.

`COc1cccc(C(=O)COC(=O)c2cc(-c3cccs3)nc3ccccc23)c1` was tested. Which survival did it give?
Its survival is inactive: 63%.

With `COCc1c(N)c(C)nc(Cl)c1C#N` as the compound, how does the survival read?
The survival was inactive: 102%.

Which survival does the source give for `COc1cccc(CNC(=O)CCc2c(C)nc3c4c(C)cc(C)nc4nn3c2C)c1` here?
The survival was inactive: 81%.

`Cc1ccccc1OCC(=O)Nc1nnc(SCc2cc(=O)n3cc(Cl)ccc3n2)s1` was tested. Which survival did it give?
The survival was inactive: 56%.

`CCc1ccccc1NC(=O)C1CCN(c2nc3ccccc3[nH]2)CC1` was tested. Which survival did it give?
Its survival is inactive: 80%.

`Cc1ccc(CCNc2nc3ccccc3c3nc(-c4cccnc4)nn23)cc1` was tested. Which survival did it give?
Its survival is inactive: 77%.

With `Cc1ccc(-n2nc(C)c(C(=O)NCCCN3CCN(c4cccc(Cl)c4)CC3)c2-n2cccc2)cc1` as the compound, how does the survival read?
The survival was active: -2%.

Which survival does the source give for `Cc1ccc(C)c(CN2C(=O)c3ccccc3S(=O)(=O)c3ccc(C(=O)NCCc4ccc(Cl)cc4)cc32)c1` here?
Its survival is inactive: 132%.

With `COc1ccc(CNC(=O)CN(C(=O)c2ccc(N3CCCC3)nc2)c2ccccc2C)cc1` as the compound, how does the survival read?
Its survival is inactive: 110%.

With `CC(C)CCSc1nnc2n(-c3ccccc3)c(=O)c3c4c(sc3n12)CC(C)CC4` (stereo unspecified) as the compound, how does the survival read?
Its survival is inactive: 76%.

How did the survival turn out when `CCOC(=O)c1c(C)[nH]c(C)c1S(=O)(=O)NCC(=O)NCc1cccc(Br)c1` was run?
The survival was inactive: 134%.

For `O=C(Nc1ccc(Oc2ccccc2)cc1)c1ccc(F)c(S(=O)(=O)N2CCN(c3ccccc3F)CC2)c1`, which survival is on record?
Its survival is inactive: 72%.

How did the survival turn out when `Cc1cc(C)nc(-n2nc(C)c3c2N(Cc2ccccc2C)C(=O)CC3c2ccc(Cl)cc2)n1` (stereo unspecified) was run?
Its survival is inactive: 81%.

`COC(=O)c1ccccc1N(C)S(=O)(=O)c1cc2c3c(c1)CC(=O)N3CCC2` was tested. Which survival did it give?
The survival was inactive: 80%.

`CCc1ccc(NC(=O)Cn2c(=O)nc(-c3ccccc3F)c3cc(Cl)ccc32)cc1` was tested. Which survival did it give?
Its survival is inactive: 89%.

How did the survival turn out when `COc1cccc(NC(=O)/C(C#N)=C/c2ccc(-c3ccc(C)cc3)o2)c1` was run?
The survival was inactive: 58%.

With `Cc1ccc2cc3cc(C(=O)N4CCN(c5ccccc5)CC4)sc3nc2c1` as the compound, how does the survival read?
Its survival is inactive: 84%.

Which survival does the source give for `O=C(Cn1cc(S(=O)(=O)Cc2cccc(Cl)c2)c2ccccc21)NCc1ccccc1Cl` here?
The survival was inactive: 77%.

How did the survival turn out when `Cc1ccc(S(=O)(=O)Nc2cccc(-c3ccc(N4CCCC4)nn3)c2)c(C)c1` was run?
The survival was inactive: 63%.
